Values joined by “and” are separate entries in the source; they are usually repeats but may differ in a detail not shown here. Identical values can stand only once. In all, about 48,000 compounds went through this assay and about 1,200 (2.5%) were called active. Not shown: some 2% with an inconclusive outcome.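 The calls were made as follows: active = activation of at least 60% and not above a set upper limit (about 1 call in 100 departs from these limits); inconclusive = activation of 40% to 60%, or above that upper limit; inactive = activation under 40%.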 This is one part of the list.

The experiment has as its target Probable G-protein coupled receptor 32 (Homo sapiens) (UniProt O75388). Briefly: qHTS for Agonists of Human Resolvin D1 Receptor DRV1. Also: 0% is about no effect. Conditions: CHO-K1 GPR32 beta-arrestin PathHunter luminescence, 90 min; at 76.9 µM; hits give high values; zero percent set by DMSO-only wells. In outline: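 Agonism was scored by beta-Gal fragment complementation (chemiluminescent read, 1 h detection at ambient temperature) reporting beta-arrestin binding to GPR32 in engineered CHO-K1 cells. Compound treatment lasted 90 min at 37 C, normalized to a DMSO basal control.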
Sequence of UniProt O75388 (O75388 whole entry, looked up, the tested form may be a part): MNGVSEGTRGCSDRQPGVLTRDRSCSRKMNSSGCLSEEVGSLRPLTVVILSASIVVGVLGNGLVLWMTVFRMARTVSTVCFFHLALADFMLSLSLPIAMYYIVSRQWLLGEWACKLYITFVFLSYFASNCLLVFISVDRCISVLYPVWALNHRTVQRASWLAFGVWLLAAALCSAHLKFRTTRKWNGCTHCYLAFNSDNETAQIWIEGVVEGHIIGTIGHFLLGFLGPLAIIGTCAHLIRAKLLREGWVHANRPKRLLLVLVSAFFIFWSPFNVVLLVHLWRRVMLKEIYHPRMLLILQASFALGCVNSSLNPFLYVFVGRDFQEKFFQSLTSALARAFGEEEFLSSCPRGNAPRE
A general note: qHTS replaces the single test concentration by a dilution series.
Take `CCC(=O)N1c2ccccc2CC1C(=O)N1CCN(c2cccc(OC)c2)CC1` (centres undefined): the activation is inactive: 11.6%.
As for `Cc1cccc(NC(=O)CC2Nc3cccc4cccc(c34)NC2=O)c1` (centres undefined), the figure is inactive: -13.1%; as for `COC(=O)c1cc2oc(C)cc2n1Cc1cc(C)ccc1C`, inactive: -25.6%.
To `Cc1ccc(C)c(NC(=O)Cn2ncc3c([nH]c4ccccc43)c2=O)c1` belongs inactive: -3.91%; to `CCOc1ccc(NC(=O)CSc2nc(-c3cccc(Cl)c3)nc3c2Cc2c(CO)cnc(C)c2O3)cc1`, inactive: -10.9%.
As for `COc1ccc(C2c3c(n(C)c4ccccc34)C(=O)N2CC(=O)Nc2c(C)cc(C)cc2C)cc1` (centres undefined), the figure is inactive: -20.7%; as for `CC(C)Cn1cc(NC(=O)NCc2ccc(Cl)cc2)c2ccccc2c1=O`, inactive: -40.3%.
For the molecule `CCC(=O)N1c2ccccc2CC1C(=O)NCCCN1CCN(c2cccc(Cl)c2)CC1` (centres undefined), the activation is inactive: 23.9%.
To `Cc1ccc(C)c(NC(=O)CSc2nc(=O)n(CCN3CCOCC3)c3c2CCC3)c1` belongs inactive: -4.56%; to `COc1cc2c(cc1OC)C(COc1ccc3c(C)cc(=O)oc3c1)N(C(=O)c1ccc(C)cc1)CC2` (centres undefined), inactive: -9.4%.
As for `COc1ccc(Br)c2c1-c1nc(NC(=O)c3ccc(F)cc3)sc1C2`, the figure is inactive: -2.62%.
As for `CCOC(=O)N1CCC(NC(=O)c2ccc3c(c2)N(Cc2ccccc2)C(=O)c2ccccc2S3(=O)=O)CC1`, the figure is inactive: -28%; as for `Cc1c(C(=O)NCc2ccccc2Cl)sc2nc3n(c(=O)c12)CCCC3`, inactive: 6.5%.
As for `CCOc1ccccc1CNC(=O)C(CC)n1nc(C)c2c(C)n(-c3ccccc3)nc2c1=O` (centres undefined), the activation is inactive: -15.9%.
To `O=C(Nc1ccc(Cl)cc1)c1ccc2oc(=O)n(Cc3ccccc3)c2c1` belongs inactive: 25.4%; to `Cc1ccc2c(c1)C(=O)OC(C(=O)Nc1ccc(C(=O)O)cc1)C2` (centres undefined), inactive: -13.5%; to `COCCCNc1nc2c(c(=O)n(Cc3ccccc3)c(=O)n2C)n1C`, inactive: -4.94%.
To `COc1ccc(C(=O)CN2CCN(S(=O)(=O)c3ccc(F)cc3)CC2)cc1` belongs inactive: -20.9%; to `Cc1cc(NC(=O)c2ccc(F)cc2)ccc1-c1cc2ccccc2oc1=O`, inactive: -2.13%.
As for `Cc1ccc(Cl)cc1NC(=O)c1csnn1`, the figure is inactive: 9.51%; as for `CC(=O)OC1=C(C(C)=O)N(Cc2ccccc2)S(=O)(=O)c2ccccc21`, inactive: -10.8%; as for `CC(=O)N1CCC2(CC1)OC(=O)C(C)=C2C(=O)NCc1ccccc1Cl`, inactive: 0.546%.
As for `COc1ccc(-c2cn3c(n2)sc2cc(C(=O)Nc4ccc(F)cc4)ccc23)cc1`, the activation is inactive: -7.63%.
As to `CCCCSc1nnc2[nH]c(=O)cc(C)n12`, the activation is inactive: 26.9%.
To `O=C(c1cc(-c2ccc(Br)cc2)n[nH]1)N1CCN(S(=O)(=O)c2ccc(Br)s2)CC1` belongs inactive: -5.67%.
As for `CC1CCN(C(=O)CCS(=O)(=O)c2cc3c(cc2Cl)NC(=O)CO3)CC1`, the figure is inactive: -2.27%; as for `CCOC(=O)c1nnn(CC(=O)NC(=O)Nc2ccccc2F)c1C(=O)OCC`, inactive: 4.89%.
To `Fc1ccc(Nc2nc(SCc3cccc(F)c3)nc3ccccc23)cc1` belongs inactive: -8.92%; to `Cc1cccc(CC(=O)NC2CC(=O)N(c3ccc4c(c3)OCCO4)C2)c1` (centres undefined), inactive: 7.61%.
Regarding `CCOc1ccc(Nc2nc(N)c(C(=O)c3ccccc3Cl)s2)cc1`, the activation is inactive: 27.4%.
To `CCN(CC)S(=O)(=O)c1ccc(NC(=O)c2nn(C)c3c2CSc2ccccc2-3)cc1` belongs inactive: -1.9%; to `CCC(=O)N1CCc2cc(Br)cc(S(=O)(=O)CCC(=O)Nc3ccc(CC)cc3)c21`, inactive: 13.7%.
To `Cc1ccccc1CSc1ncc(Cl)c(C(=O)NCc2ccccc2)n1` belongs inactive: 0.513%.
To `CCOC(=O)c1ccc(N2C(=O)c3[nH]nc(-c4ccc(C)cc4)c3C2c2ccc(O)cc2)cc1` (centres undefined) belongs inactive: -0.183%.
As to `COc1ccc(Nc2ncnc3c2cnn3-c2cc(Cl)ccc2C)cc1OC`, the activation was inactive: 12.6%.
To `Cc1cccc(-c2nc(SCCCOc3cc(C)c(Cl)c(C)c3)n3[nH]c(=O)cc3n2)c1` belongs inactive: -45.5%; to `CCOc1ccc(OCCOCCn2c(-c3ccc(Cl)cc3)nc3ccccc3c2=O)cc1`, inactive: -8.34%; to `CCOC(=O)c1ccc(NC(=O)CCCn2nc(C)c3sc4ccccc4c3c2=O)cc1`, inactive: -13%.
For the molecule `COc1ccc2c(c1)c1c(c(=O)n(CCc3ccccc3)c(=O)n1Cc1cccc(C)c1)n2C`, the activation is inactive: -9.7%.
As for `CSc1ncc(C(=O)NCc2ccc(F)cc2)c(-c2ccccc2)n1`, the figure is inactive: -7.9%; as for `CCCCN(CC)CCCNC(=O)Cn1nc(CC)n2c(cc3sccc32)c1=O`, inactive: -12.1%.
In the case of `Cc1ccc(C(=O)OC2=C(C(=O)c3ccccc3)N(C)S(=O)(=O)c3ccccc32)cc1`, the activation was inactive: -34.5%.
To `COC(=O)CC(=O)CSc1nc2cc(C(=O)NC(C)C)ccc2c(=O)n1CCc1ccccc1` belongs inactive: 7.98%; to `CCCc1oc2ccc(NS(=O)(=O)c3ccc(OCC)cc3)cc2c1C(=O)OCC`, inactive: -31.5%.
As for `O=C(Cc1ccc(-c2ccccc2)cc1)NCCS(=O)(=O)N1CCN(c2cccc(Cl)c2)CC1`, the figure is inactive: -2.97%; as for `CS(=O)(=O)c1ncc(Cl)c(C(=O)N2CCN(c3cccc(Cl)c3)CC2)n1`, inactive: -22.7%; as for `O=C(CN1C(=O)COc2ccc(S(=O)(=O)N3CCOCC3)cc21)NCc1ccc(Cl)cc1`, inactive: -13.7%.
As for `CCN(C(=O)CSc1nnc(-c2cc3occc3n2C)n1-c1ccccc1C)c1ccccc1`, the figure is inactive: -4.42%; as for `Cc1nc2cc(-c3ccc(Cl)cc3)nn2c(C)c1CCC(=O)N1CCN(c2ccccc2)CC1`, inactive: -0.273%.
Take `Cc1oc2ncn(CC(C)C)c(=O)c2c1C(=O)NCc1cccc(Cl)c1`: the activation was inactive: -25.2%.
`CC1c2ccccc2CN1NC(=O)c1ccc(Cl)c(S(N)(=O)=O)c1` (centres undefined): the activation is inactive: -21.6%.
For `CCOc1ccc(Nc2sc(C(=O)c3ccc(F)cc3)c(N)c2S(=O)(=O)c2ccc(C)cc2)cc1`, the activation is inactive: -1.91%.
For `Cc1ccc(-c2onc(C)c2C)cc1S(=O)(=O)N1CCC(C)CC1`, the activation was inactive: -7.65%.
With `Cc1ccc(Cn2c(C(=O)Nc3ccc(Cl)cc3)cc3sccc32)cc1`, the activation is inactive: -4.18%.
As for `CCOc1ccc(C2C(=O)N(C3CCCCC3)CC(=O)N2Cc2ccccc2OC)cc1OC` (centres undefined), the figure is inactive: -13.1%.
As for `CC(C)Oc1ccc(CNC(=O)c2cc3cccc4c3n2CC(C)S4)cc1` (centres undefined), the figure is inactive: -19.6%; as for `CCc1ccc(-c2nc3c(c(SCc4ccccc4)n2)Cc2c(CO)cnc(C)c2O3)cc1`, inactive: 8.66%.
As for `COc1cc(Cl)c(C)cc1NC(=O)CNC(=O)Cn1ccc2ccccc2c1=O`, the figure is inactive: 2.83%.
As for `COc1ccc(Cl)cc1NC(=O)c1ccc(CN2C(=O)CCn3nc(C)cc32)cc1`, the activation is inactive: 16.8%.
As for `Cc1ccc(NC(=O)Cc2ccc(NC(=O)N3CCCCc4ccccc43)cc2)cc1Cl`, the figure is inactive: -24%; as for `O=C(O)/C=C/c1ccc(O)c(O)c1`, inactive: 0.615%.
In the case of `CCN(CC)c1ccc(NC(=O)Cn2ncc3c(C)n(Cc4ccccc4F)c(C)c3c2=O)c(C)c1`, the activation was inactive: -2.79%.
For the molecule `COc1ccc(/C=C/C(=O)Nc2ccc(C)cc2)cc1`, the activation is inactive: -9.43%.
For the molecule `COc1cccc(-c2nc(S(=O)(=O)c3ccc(C)cc3)c(N3CCCCCC3)o2)c1`, the activation was inactive: -5.71%.
As for `CCOC(=O)c1ccc(N2C(=O)c3n[nH]c(-c4ccco4)c3C2c2ccc(OC)cc2OC)cc1` (centres undefined), the figure is inactive: -7.58%; as for `Cc1cccc(C)c1-n1ncc(C(=O)NCCCN2CCCCC2)c1C1CCN(C(=O)OC(C)(C)C)CC1`, inactive: -13.4%.
To `CCCCOc1ccc(C(=O)NCC(c2ccc(Cl)cc2)N2CCOCC2)cc1` (centres undefined) belongs inactive: -17.4%; to `O=C(Nc1ccc(Oc2ccccc2)cc1)c1ccc(F)c(S(=O)(=O)N2CCN(c3cccc(Cl)c3)CC2)c1`, inactive: 4.95%; to `COC(=O)c1nnn(-c2cccc(C)c2)c1N`, inactive: 0.316%.
As for `CCOC(=O)c1ccc(NC(=O)CN(Cc2ccc(C)cc2)S(=O)(=O)c2ccc(C)cc2)cc1`, the figure is inactive: -11.4%; as for `CC(C)Oc1ccc(CNC(=O)CN2C(=O)CCn3nc(-c4cn(C)c5ccccc45)cc32)cc1`, inactive: 13.6%; as for `COc1ccc(-n2c(SCc3nc(-c4ccc(C)cc4)no3)nnc2-c2ccccc2)cc1`, inactive: -17.2%.
For `Fc1ccccc1N1CCN(Cc2nnc(-c3ccc4c(c3)OCO4)o2)CC1`, the activation is inactive: 10.5%.
To `COC(=O)c1ccc(NC(=O)CSc2n[nH]c(-c3ccccc3)n2)cc1` belongs inactive: -6.95%; to `CC1CN(C(=O)Nc2ccc(C(=O)NCc3ccccc3F)cc2)c2ccccc2S1` (centres undefined), inactive: -15.1%; to `Cc1ccccc1OCC(=O)Nc1ccc2oc(-c3ccc(F)cc3)nc2c1`, inactive: 1.36%.
To `O=C(Nc1nc2c(Cl)cccc2s1)c1ccc(S(=O)(=O)N2CCc3ccccc32)cc1` belongs inactive: -18.2%; to `Cc1ccc(C)c(N2C(=O)N(Cc3ccccc3C)c3ccccc3S2(=O)=O)c1`, inactive: -8.85%.
As for `Clc1ccc(Cn2c(CN3CCCC3)nc3ccccc32)cc1`, the figure is inactive: -72.2% and inactive: -7.35%; as for `CCN(CCCNC(=O)CSc1cc(=O)n(CC)c2ccccc12)c1ccccc1`, active: 117%.
As to `CCc1ccc(CNC(=O)Cn2ccc3cc(S(=O)(=O)N4CCCCCC4)ccc32)cc1`, the activation was inactive: 36.1%.
For the molecule `Oc1ccc2ccccc2c1SSc1c(O)ccc2ccccc12`, the activation is inactive: 50%.
Turning to `O=C(NC1CCCC1)c1ccc2c(=O)n(Cc3ccccc3)c(SCc3ccc([N+](=O)[O-])cc3)nc2c1`, the activation is inactive: -12.2%.
For `CCOC(=O)N1CCN(Cc2nc3cc(NC(=O)CC)ccc3n2C(C)C)CC1`, the activation is inactive: 3.86%.

(Values after PubChem BioAssay AID1346428 (National Center for Advancing Translational Sciences (NCATS), 2018).)
